In the supplement of paper PMC3334620:
Whole data set: some 33,000 sequences, median “E-score (-0.5 to 0.5)” near -0.01, cut for the highest 2% near 0.26. Some of the results follow.

The sequences below were run against Ste12 (UniProt P13574) (assay: PBM E-score (8-mer binding enrichment) (E-score (-0.5 to 0.5)); higher = stronger / more preferred TF binding; most listed sequences are background and not binding sites). Settings: protein concentration: 200 nM; construct: GST-DNA-binding domain.
Outline: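 Yeast transcription factors, full-length or as DNA-binding domains, were expressed with a GST tag using PURExpress in vitro transcription/translation. At about 100-200 nM they were applied to universal all-10-mer Agilent arrays, double-stranded by primer extension on fresh or once-stripped slides. Fluorescent anti-GST detected bound protein, and masliner normalised the scans. E-scores for ungapped eight-base words, pooled with reverse complements, came from the Universal PBM Analysis Suite.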

| Sequence | PBM E-score |
| --- | --- |
| CAGAGTAA | -0.0561 |
| CAGAGATA | 0.00937 |
| AATGCGTC | -0.134 |
| CGGCTACC | -0.156 |
| AAGAAAGC | -0.0303 |
| AACTCCGT | 0.0594 |
| AGTTCGAT | -0.117 |
| AATGGGGG | -0.187 |
| ACAGCCAT | 0.0226 |
| AGAATGGC | -0.0721 |
| ACAACACA | 0.138 |
| CAACCGAA | 0.0797 |
| GCGGGTAC | -0.0992 |
| ACGGTAAG | -0.0485 |
| AAGGGACC | -0.132 |
| AACGAAAT | 0.169 |
| AGGCAACT | 0.0276 |
| TATCCTCA | -0.0222 |
| AACTCAAA | 0.266 |
| AAGCGACG | -0.144 |
| ATCTGTAG | -0.0894 |
| TACACGGA | 0.153 |
| GCCACAGC | -0.299 |
| GCAGTACC | -0.0188 |
| CAGGGCAC | -0.139 |

| Sequence | PBM E-score |
| --- | --- |
| CGATGGCC | -0.0786 |
| CTCGACTA | 0.0414 |
| AGGGGCCA | 0.019 |
| AGTAATAG | 0.0705 |
| TCAGATGA | 0.197 |
| CGTAAGCC | 0.00046 |
| GTAGGTGA | 0.0465 |
| CTGTACAA | -0.176 |
| TACGGAGA | -0.163 |
| TGACGAAA | 0.219 |
| GATCGCGA | 0.0426 |
| GCGCTCTA | 0.00062 |
| TAACGCGA | 0.0877 |
| CCGGTAAG | -0.172 |
| GGTTTCGA | 0.193 |
| ATGGGGAG | -0.033 |
| AGATTGTA | 0.166 |
| AAAAAGCC | 0.229 |
| TATCTAAA | 0.26 |
| AAAGGACG | -0.0996 |
| AAAAATTG | 0.263 |
| TGACTGCA | -0.193 |
| CTGGAGAC | -0.224 |
| TCCTGCAA | -0.166 |
| CGTACGCA | -0.0563 |

| Sequence | PBM E-score |
| --- | --- |
| GGGGCGAC | 0.00253 |
| CGACATAG | -0.159 |
| TGGCATAA | 0.307 |
| AACCATTC | -0.00154 |
| CAATGCCA | -0.01 |
| CGTTCTTA | 0.0228 |
| ACATCGCC | 0.0237 |
| AATCAACT | 0.0774 |
| CAAATAAC | 0.283 |
| CGCCATAC | 0.0498 |
| CCGAAGTA | -0.157 |
| AGTTTTAT | 0.275 |
| TAGAAGAA | 0.132 |
| GTGAGCTA | 0.116 |
| CCCACTAG | -0.222 |
| AAAGCCAC | 0.013 |
| AGGCCCGC | 0.0381 |
| GTCAAAAC | 0.136 |
| GATAGTAA | -0.0665 |
| TATGTACA | -0.00078 |
| CACATCGC | -0.0501 |
| AAAACGTC | 0.134 |
| ATCATCCA | 0.0729 |
| TGGCCTAA | -0.0815 |
| AACCGTCT | -0.0707 |

| Sequence | PBM E-score |
| --- | --- |
| CAAGACCG | -0.0719 |
| ACTGCCTC | -0.105 |
| CATGAGAC | 0.212 |
| CTCTGAAG | -0.104 |
| ATATAAAG | 0.171 |
| GGCGCATA | -0.0628 |
| TGCATCAA | 0.0996 |
| AAGCATCC | -0.0149 |
| CGGGCTCA | -0.147 |
| AGCCGCCA | -0.272 |
| TCACGGAA | 0.135 |
| CTATTAAG | 0.0151 |
| CGGAGACC | -0.101 |
| CTGACAGA | -0.0419 |
| GCCTAACA | -0.0189 |
| CAATGCAA | 0.109 |
| GTACCTTA | -0.0219 |
| TATCAATA | 0.0646 |
| AACCACAC | 0.134 |
| ATTGGAAA | 0.142 |
| AGTAAAAT | 0.122 |
| CAATACAC | 0.0704 |
| ACTGTGCT | -0.136 |
| ACCCGAGA | -0.0344 |
| AGACCCGG | -0.00476 |

| Sequence | PBM E-score |
| --- | --- |
| CGGTGAGA | 0.0281 |
| GCACCACC | -0.0507 |
| CCTACAAA | -0.0141 |
| CACTGGCG | 0.0948 |
| GGGCCTAC | -0.266 |
| ATGTCCCG | 0.134 |
| CGTCAGAG | -0.0346 |
| GCCGTAGC | -0.171 |
| AGGCGATA | -0.0277 |
| GTGTTACA | 0.19 |
| GACGACAA | 0.134 |
| AAACGCTA | 0.112 |
| TCCGGACA | -0.0855 |
| TACCTATA | 0.106 |
| AATCCAAG | 0.0843 |
| AAGTAAAA | 0.207 |
| AAAACCTA | 0.283 |
| CCGTACCC | -0.105 |
| CGCCGCCA | 0.0918 |
| ACCTCTAT | -0.0679 |
| GTTTAATA | 0.179 |
| ACTGACTA | -0.184 |
| AAGCCGAA | 0.201 |
| AACGCTGC | 0.095 |
| ATGATACC | 0.0159 |

| Sequence | PBM E-score |
| --- | --- |
| ACAAAAGC | 0.133 |
| GTGCTCCA | -0.217 |
| CAAATGTG | 0.224 |
| AGGGAGAT | -0.134 |
| AAGTGAAC | -0.161 |
| AAGTGTCA | 0.0167 |
| GCACACAA | -0.0442 |
| GCCACTAA | -0.0737 |
| ACTCGGCA | 0.0505 |
| GCTCGTAA | 0.0527 |
| GAGCTCTA | -0.0421 |
| CGCCTGGA | -0.186 |
| AATCAACA | 0.29 |
| CTTGAGCC | -0.171 |
| GCGAGTCC | -0.187 |
| CTGTCGCC | -0.0732 |
| ATCGGGCC | -0.141 |
| TAATTCAA | 0.12 |
| GACTCGAA | -0.143 |
| ACGTAAGA | -0.0585 |
| CGTGGATC | -0.215 |
| GATGGCGC | -0.157 |
| GTCACACA | 0.131 |
| ACTACTAT | 0.155 |
| ATAGGCAT | 0.0191 |

| Sequence | PBM E-score |
| --- | --- |
| CTGTCAAA | 0.0412 |
| AACTCCTG | -0.0735 |
| AACCGATA | 0.156 |
| TATCTCAA | 0.249 |
| GATTTGCA | 0.00045 |
| ACCATGGC | 0.0464 |
| CCATCCCG | -0.176 |
| AAAAGATA | 0.201 |
| CTTATCCA | 0.0913 |
| GCCTTCGA | -0.115 |
| GGCAATAC | 0.0406 |
| CGAGACCG | 0.0525 |
| AGTGGAAA | -0.0995 |
| AAGCAGAC | -0.00074 |
| TCTAGACA | 0.0632 |
| CCGTGCGA | -0.00195 |
| CTGAAAGA | 0.00814 |
| ATCAACAC | 0.0307 |
| CTTCATAC | 0.149 |
| ACATCTAG | 0.0498 |
| CGTTGCAG | -0.0969 |
| ACATTAGA | 0.0281 |
